PubChem BioAssay AID624296 (National Center for Advancing Translational Sciences (NCATS), 2012)
Where “and” joins values, the source holds several entries; their conditions need not be identical. Equal values may be shown once. Among all 350,000 compounds or so, about 9,900 (2.8%) were called active. Inconclusive results, whose numbers are uncertain, are shown with a selection of clear calls. The call rests on the fitted dose curve; in most records, active means well fitted activation curve with a large enough effect; inconclusive means small, poorly fitted or top-dose-only effect; inactive means no such curve, though single readings can be large or run the other way. No potency is given beside an inconclusive call; the fits are too rough. Some structures have more than one record in an assay (separate samples or runs), and their calls can disagree.

Test: A quantitative high throughput screen for small molecules that induce DNA re-replication in MCF 10a normal breast cells. Further: nearly all actives have a fitted effect of over 50% in size. On activity, positive = re-replication: % of control where 0% means no effect.
Settings: MCF 10A DNA re-replication, Hoechst nuclear intensity, 48 h; activity, positive = re-replication: at 46.1 µM (top of the series)
Potency means the concentration at half of the fitted maximal effect; tags describe the fitted curve by direction and shape.

SMILES	activity, positive = re-replication	Potency
Cc1ccccc1C(=O)NC1CCN(Cc2nnnn2Cc2ccccc2)CC1	inactive: 5.89%	–
O=[N+]([O-])c1ccc(NCc2ccccc2N2CCC(CO)CC2)nc1	inactive: 1.77%	–
CC1CCc2c(sc3ncnc(NS(=O)(=O)c4cccs4)c23)C1 (configuration not stated)	–	inconclusive [activator, single point]
COc1ccccc1C1/C(=C(/O)c2ccccc2)C(=O)C(=O)N1CC(C)O (configuration not stated)	inactive: 13.6%	–
CCCCN(CC)CCCNC(=O)c1cc2cc3ccc(OC)cc3nc2o1	inactive: -2.61%	–
COc1cc(C(=O)NCCC(=O)NC(C)CCc2ccccc2)cc(OC)c1OC (configuration not stated)	inactive: 6.3%	–
CCCn1c2ccc(C)cc2c2nnc(SCCN3CCOCC3)nc21	inactive: 12.1%	–
Oc1cccc(/C=N/NC(=S)Nc2cccnc2)c1O	–	inconclusive [activator, full curve, poor fit]
COc1ccccc1S(=O)(=O)N1CCN(S(=O)(=O)c2ccccc2C#N)CC1	–	inconclusive [activator, single point]
CC(C)C[C@H]1CN([C@@H](CC(C)C)CN2CCCC2CN2C(=S)NC[C@@H]2Cc2ccc(O)cc2)C(=S)N1CC1CCCCC1 (some centres not stated)	–	inconclusive [activator, full curve, poor fit]
O=C(NCc1ccccc1Cl)C1CCN(S(=O)(=O)N2CCCCC2)CC1	inactive: -3.59%	–
Fc1cccc(Cc2noc(CN3CCCCC3CCc3ccccn3)n2)c1 (configuration not stated)	inactive: 10.8%	–
N#Cc1cc([N+](=O)[O-])ccc1NC(=O)COC(=O)CC1CCCC1	inactive: -0.298%	–
COc1cccc(CN(C(=O)Cc2c[nH]c3ccccc23)C(C(=O)NC2CCCCC2)c2ccc(C)o2)c1 (configuration not stated)	inactive: 6.49%	–
COc1cc(OC)cc(C(=O)NNC(=O)c2ccccn2)c1	–	inconclusive [activator, single point]
COC(=O)c1sc2nc3c(cc2c1N)CCCC3	–	inconclusive [activator, single point]
Cc1ccc(Cl)c(Nc2ccccc2C(=O)O)c1Cl	–	inactive and active: 26.6 µM
C=C1/C(=C\C=C2/CCC[C@]3(C)[C@@H]([C@H](C)/C=C/[C@@H](O)C4CC4)CC[C@@H]23)C[C@@H](O)C[C@@H]1O	–	inconclusive [activator, single point]
CC(C)C(=O)Nc1cccc2nsnc12	inactive: -2.16%	–
Cc1sc2nc(CSCC(=O)NC(C)(C)C)[nH]c(=O)c2c1C	–	inconclusive [activator, partial curve, poor fit]
CC(C)(C)C(=O)Nc1sc2c(c1-c1nc3ccccc3[nH]1)CCCC2	–	active: 13 µM
S=C(c1cn(CCOc2cccc3ccccc23)c2ccccc12)N1CCCC1	–	inconclusive [activator, full curve, poor fit]
CN(C)Cc1nc2ccccc2c(=O)n1Cc1nc(C(C)(C)C)cs1	–	inconclusive [activator, single point]
Cc1ccccc1OCCCC(=O)Nc1ccc(Br)cc1	–	inconclusive [activator, partial curve, poor fit]

SMILES	activity, positive = re-replication	Potency
Cc1ccc2cc(CN(Cc3ccco3)C(=S)NCC3CCCO3)c(=O)[nH]c2c1C (configuration not stated)	–	inconclusive [activator, single point]
COc1ccc(/C=N/NC(=O)c2ccc(CN3c4cccc5cccc(c45)S3(=O)=O)cc2)cc1	inactive: 15.7%	–
COC(=O)Nc1nc2ccc(SC(C)C)cc2[nH]1	–	active: 1.64 µM
O=C(CSc1ccc2ccccc2c1)NCCc1ccc(O)c(O)c1	–	inconclusive [activator, partial curve]
COc1ccc(CNC(=O)C(NS(=O)(=O)c2ccc3c(c2)CCCN3C(C)=O)C(C)C)cc1 (configuration not stated)	–	inconclusive [activator, full curve, poor fit]
CCOc1ccc(N/C(N)=N/c2nc(CSc3nnc(C)s3)cc(=O)[nH]2)cc1	–	inconclusive [activator, full curve]
CC(=O)Oc1c(I)cc(I)cc1C(=O)Nc1ccc(Cl)cc1	–	active: 7.31 µM
COCCCNC(=S)NCCNc1nc2cc(C)c(C)cc2cc1C#N	–	inconclusive [activator, partial curve, poor fit]
Cn1c(=O)cc(OCCCC(=O)N2CCN(c3ccccc3)CC2)c2ccccc21	–	active: 9.2 µM
COC(=O)c1[nH]c2ccc(C)cc2c1NC(=O)CN1CCN(Cc2ccccc2)CC1	–	inconclusive [activator, partial curve]
CCOc1ccccc1NC(=O)Cn1c(=O)oc2ccccc21	inactive: -1.85%	–
CCN1CCCC1CNC(=O)c1ccc2c(c1)NC(=O)/C(=C\c1ccc(C)cc1)S2 (configuration not stated)	–	inconclusive [activator, single point]
O=C(NCCN1CCOCC1)c1cnn2c(-c3ccccc3)cc(-c3ccccc3)nc12	–	inconclusive [activator, single point]
Cc1cnc2ncc3sccc3c2c1	inactive: -8.56%	–
Clc1cccc(C2CCN(Cc3nc(CC4CC4)no3)C2)c1 (configuration not stated)	inactive: 12.3%	–
COc1ccc(S(=O)(=O)/N=C2\C=C(NS(=O)(=O)c3ccccc3)C(=O)c3ccccc32)cc1	–	inconclusive [activator, single point]
Cc1ccc(-c2csc3nc(-c4ccncc4)[nH]c(=O)c23)cc1	–	active: 18.4 µM
CC1CCN(c2c(NCC3CCC(C(=O)N4CCc5ccccc5C4)CC3)c(=O)c2=O)CC1 (configuration not stated)	inactive: 20.5%	–
COc1ccccc1NC(=O)Cn1c2ccc(F)cc2c2nc3n(c(=O)c21)CCS3	–	inconclusive [activator, partial curve, poor fit]
Cc1ccc(Nc2c3c(nc4ccccc24)CCC3)cc1	–	inconclusive [activator, full curve, poor fit]
CCC(c1nnc(SCC(=O)N(C)c2ccccc2)n1Cc1ccccc1)N(C)C (configuration not stated)	inactive: 1.14%	–
CCOc1cccc2sc(N(CCCN(C)C)C(=O)c3ccc(S(=O)(=O)N(C)Cc4ccccc4)cc3)nc12	–	inconclusive [activator, single point]
O=C(CNC(=O)c1cccc(S(=O)(=O)N2CCc3ccccc32)c1)Nc1ccc(F)c(F)c1F	–	inconclusive [activator, partial curve, poor fit]
COCCn1c(SCC(=O)N2CCOCC2)nnc1-c1ccncc1	inactive: -8.54%	–

SMILES	activity, positive = re-replication	Potency
O=C1C=C(c2ccc(Br)c3ccccc23)C[C@@H](c2ccc3c(c2)OCO3)C1	–	inconclusive [activator, partial curve, poor fit]
COc1cc(C)c(CNc2cc(C)cc(C)c2)cc1C	–	inconclusive [activator, single point]
COc1ccc(OC)c(-c2cc(C(=O)NCc3cccs3)no2)c1	–	inconclusive [activator, partial curve, poor fit]
Cc1ccc2sc(N(CCN(C)C)C(=O)/C=C/c3cccs3)nc2c1C	–	inconclusive [activator, single point]
COc1ccc2c(Cl)c(C(N)=O)sc2c1	inactive: 0.708%	–
Cc1cc(N2C(=O)C(O)=C(C(=O)c3cc4ccccc4o3)C2c2cccs2)no1 (configuration not stated)	inactive: -2.39%	–
CC(C)Cn1c(SCC(=O)N2CCCc3ccccc32)nc2ccccc2c1=O	–	active: 20.6 µM
Cc1ccc(-c2cc(C(=O)NCc3ccc4c(c3)OCO4)[nH]n2)c(O)c1C	–	inconclusive [activator, single point]
Cc1[nH]c(=O)c(C(=O)/C=C/c2ccccc2F)c2c1CCCC2	–	active: 3.26 µM
COc1ccc2[nH]c3c(c2c1)CCN1C(=O)C(CC(=O)NCc2ccco2)C[C@H](C(=O)N2CCOCC2)[C@@]31CCC1CCCC1 (some centres not stated)	–	inconclusive [activator, single point]
O=C(CCC(=O)N(CC(=O)NC1CCCCC1)CC1CCCO1)Nc1nccs1 (configuration not stated)	–	inconclusive [activator, partial curve, poor fit]
CC1(C)CC(NNCCC#N)=CC(=[N+]2CCCC2)C1	–	inconclusive [activator, single point]
Cc1cc(S(=O)(=O)NC2CCN(Cc3ccccc3)CC2)c(C)cc1Cl	–	inconclusive [activator, partial curve, poor fit]
COc1cccc(NC(=S)NCCC(c2ccccc2)c2ccccc2)c1	–	inconclusive [activator, partial curve]
Cc1nc(Nc2ccccc2)sc1C	inactive: 3.12%	–
COc1ccc(NC2CC(=O)N(CCc3ccccc3)C2=O)cc1 (configuration not stated)	inactive: 1.3%	–
COc1cccc2c1oc1c(SCc3nc4ccccc4[nH]3)nc(C)nc12	–	inconclusive [activator, single point]
COc1cc(-c2noc(C)c2/C=C/c2ccc(N)cc2)cc(OC)c1OC	inconclusive: 139% [activator]	–
Cc1ccccc1N=Cc1cccc(O)c1O	–	inconclusive [activator, partial curve]
CC(c1ccccc1)C1CC(=O)N(Cc2ccccc2)C1=O (configuration not stated)	inactive: -1.95%	–
CCCn1c2ccccc2c2cnn(CC(=O)NCCN(CC)CC)c(=O)c21	–	inconclusive [activator, single point]
CCn1c(SCC(=O)N2CCC(C)CC2)nc2c(c1=O)SC(C)C2 (configuration not stated)	inactive: -6.32%	–
CCCCc1nc(NCCN)c(C#N)c2c1CSC(C)(C)C2	–	inconclusive [activator, single point]
COc1ccc(/C=c2\s/c(=C/C(=O)c3ccc(C)cc3)[nH]c2=O)cc1OC	–	active: 13 µM
